This note sets out measurements from the supplement of paper PMC11417369.

± gives the standard deviation of the averaged measurements. The list shows a part of the results.

In the assay the test system is PfAP2-LT AP2 domain (GST-tagged). As to the kind of experiment: gcPBM binding intensity (ln(normalized median fluorescence intensity)); higher = stronger DNA binding. A digest of the protocol: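 Probes on an Agilent 4 × 180k array were primer-extended, double-stranded and 36 bp long, taken from intergenic genomic regions, with negative controls added. GST-tagged P. falciparum DNA-binding domains from E. coli, about 25 μg on average, were applied to the array for 1 h in 1× PBS containing 1% milk, 0.2 mg/ml BSA, 0.5% salmon testes DNA and 0.03% Triton X-100. Binding intensity, obtained after Alexa488 anti-GST antibody detection and a 488 nm scan, is the highest Masliner-normalised natural-log median intensity across replicate spots of either probe orientation.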
In the case of “TGTGTTAATATGAATTTAAACATAAATAAATAAATA [CACACA_negctrl_site1589]”, the “gcPBM binding intensity (ln)” value came to 8.41 ± 0.4.

Take “GAACATTTATTGTGTGTGCACAATTCTTTTTTAACC [GTGCAC_site9697]”: the “gcPBM binding intensity (ln)” value stood at 9.2 ± 0.41.

On to “TTTTTTTGCGCGGGAAGAATAAAATTTATAGAATAT [TGCATGCA_negctrl_site306]”, for which the “gcPBM binding intensity (ln)” value was 8.4 ± 0.49.

As for “CAGACATTAATAAGTAGTACACAATAATTGACTAGG [XGTACX_site854]”, the “gcPBM binding intensity (ln)” value worked out at 8.99 ± 0.45.

For the sequence “TATCATGTGCGTGCGTGTACTTAACACACATAATAT [XGTACX_site2404]”, the “gcPBM binding intensity (ln)” value stood at 9.2 ± 0.25.

With “TATTTTTATAAAAACTGTACATAATAAATAAAAATA [XGTACX_site4743]”, the “gcPBM binding intensity (ln)” value is 8.49 ± 0.35.

For “AATCAAAGTAATTTAACACACAATTTTAATACTGTT [CACACA_site7169]”, the “gcPBM binding intensity (ln)” value came to 8.84 ± 0.43.

“TTATATGTTTCTTCACGTACGTATAAAAATGAACTT [XGTACX_site1764]”: the “gcPBM binding intensity (ln)” value turned out to be 8.64 ± 0.37.

Regarding “TTGTTCATTATGCACAGTACATAAAAAGTAAAAAAA [XGTACX_site2403]”, the “gcPBM binding intensity (ln)” value is 8.66 ± 0.59.

Consider “TCATTTATTTTAAGGTGTACCGTTTAAAATCACAAA [XGTACX_site3243]”, for which the “gcPBM binding intensity (ln)” value amounted to 8.32 ± 0.43.

For the sequence “ATATTGACAAATATTACACACATATATATATATATA [CACACA_site4079]”, the “gcPBM binding intensity (ln)” value was 9.6 ± 0.071.

For “AATGTTTAATATAACGCATGCCTTAATATAGAATGC [TGCATGCA_site463]”, the “gcPBM binding intensity (ln)” value amounted to 8.76 ± 0.36.

Consider “TTTCTAATTTATATCACACACATATATAAATAGTAA [CACACA_site6156]”, for which the “gcPBM binding intensity (ln)” value worked out at 8.72 ± 0.42.

“ATATATATAATTTAAAGTACATATTTAAGAATGAAA [XGTACX_site2238]”: the “gcPBM binding intensity (ln)” value was 8.54 ± 0.4.

On to “AGTTTTATGTAGTGTTGTACTTTATACAAATATATA [XGTACX_site990]”, for which the “gcPBM binding intensity (ln)” value worked out at 8.72 ± 0.35.

Take “AGTAATAATATAATTTGTACATATATATATTATAAA [XGTACX_site7138]”: the “gcPBM binding intensity (ln)” value was 8.64 ± 0.4.

For the sequence “TACAAAAATGTAGTCACACATATGTATACTTTTATG [CACACA_site5607]”, the “gcPBM binding intensity (ln)” value turned out to be 8.85 ± 0.42.

With “GTTTAACTGTTTTATACACACAATGTAGACAATAAA [CACACA_site8967]”, the “gcPBM binding intensity (ln)” value amounted to 8.8 ± 0.37.

Consider “GTACAAAAAAAGTGTACACAAAGTAAGACTTTAATT [CACACA_site5068]”, for which the “gcPBM binding intensity (ln)” value came to 9.08 ± 0.44.

For “CACTGTAAATAGAAAGTGCAAAAATTGTAAATAAAA [GTGCAC_site9980]”, the “gcPBM binding intensity (ln)” value stood at 8.82 ± 0.6.

Take “TAAATACATTGACACACACACAAATATGTACATACA [CACACA_site7371]”: the “gcPBM binding intensity (ln)” value was found to be 9.77 ± 0.3.

In the case of “ACTTGATTACACAACCACAAGTAATTGAAATTATTT [XGTACX_negctrl_site297]”, the “gcPBM binding intensity (ln)” value stood at 8.68 ± 0.49.

Take “TGAAAAGATAAAAAATGTACATATATATTATATATA [XGTACX_site5678]”: the “gcPBM binding intensity (ln)” value was 8.72 ± 0.48.

As to “TTTCTAAATAATATACACAAAAAAATAAAACACTAA [TGCATGCA_negctrl_site43]”, the “gcPBM binding intensity (ln)” value was determined as 8.56 ± 0.47.

For “ATACACAATTATTTTCCTATTATGCAAGCAAATTTA [CACACA_negctrl_site1176]”, the “gcPBM binding intensity (ln)” value was determined as 8.52 ± 0.37.

For “CATATTTGTATATGCACACATAAATTTTTCCATTTC [CACACA_site3467]”, the “gcPBM binding intensity (ln)” value amounted to 8.94 ± 0.41.

“AAATTTTTAAACAGCACACATAAATATAATATATAT [CACACA_site2208]”: the “gcPBM binding intensity (ln)” value amounted to 8.82 ± 0.44.

On to “AAACAAAAAAACTACAGTACTTTTTTCAATTCCCCT [XGTACX_site7541]”, for which the “gcPBM binding intensity (ln)” value is 8.68 ± 0.42.

On to “AAAATTAACCGTAACACACACACATATATATATATA [CACACA_site3964]”, for which the “gcPBM binding intensity (ln)” value was determined as 9.96 ± 0.28.

Consider “TATATGTTTACTTAATGTACTTACATTTTTATAACA [XGTACX_site1100]”, for which the “gcPBM binding intensity (ln)” value is 8.77 ± 0.46.

For “ACATAAATAATAAAAACACACATATGTACTTATATA [CACACA_site8581]”, the “gcPBM binding intensity (ln)” value is 8.97 ± 0.42.

Regarding “TTATTAATTTTTATTTTTAAATCACAAAAGATATAA [CACACA_negctrl_site787]”, the “gcPBM binding intensity (ln)” value stood at 7.92 ± 0.48.

On to “TTACATTTTTGAAATAGATACATACACGTGTATGTA [CACACA_negctrl_site1311]”, for which the “gcPBM binding intensity (ln)” value came out at 8.63 ± 0.4.

Turning to “GACATTAAAATGAAATATACATATATATGTATATAT [TGCATGCA_negctrl_site601]”, the “gcPBM binding intensity (ln)” value was 8.82 ± 0.3.

As for “AATATAAGAATATATACACACATAAATACATACATA [CACACA_site4128]”, the “gcPBM binding intensity (ln)” value was determined as 9.15 ± 0.37.

Turning to “ATATATATATATATTACACACATGTGCAATTAAAAT [CACACA_site1778]”, the “gcPBM binding intensity (ln)” value came to 9.37 ± 0.33.

For the sequence “AATTGAAAAATCAGCACACACACAAATACATACATA [CACACA_site3232]”, the “gcPBM binding intensity (ln)” value was determined as 9.885 ± 0.064.

With “TGGTAATACACATACACACACACATACACATATATA [CACACA_site7312]”, the “gcPBM binding intensity (ln)” value came to 9.96 ± 0.32.

On to “GCTATATATTACAATCGTACAATATATATATATATA [XGTACX_site6730]”, for which the “gcPBM binding intensity (ln)” value was determined as 9.07 ± 0.42.

For the sequence “AATACTTTTTATTTAGTGCATAAGAAAATATAAATC [GTGCAC_site9875]”, the “gcPBM binding intensity (ln)” value stood at 8.48 ± 0.4.

On to “TATAAAATATGTATGAGGAATAAAATTAAAAAAAAA [TGCATGCA_negctrl_site178]”, for which the “gcPBM binding intensity (ln)” value was 8.49 ± 0.52.

As for “AAAAAAAAAAATTCGGTGCAATGTAATTAATGTAAA [GTGCAC_site9588]”, the “gcPBM binding intensity (ln)” value worked out at 8.73 ± 0.47.

On to “TGAATTCATAGCAGTTGTACATTGCATGAAGAAACG [XGTACX_site3312]”, for which the “gcPBM binding intensity (ln)” value was 8.9 ± 0.45.

With “TGTTCCGAAGGTTGTACACACATAGAAATATACATA [CACACA_site3874]”, the “gcPBM binding intensity (ln)” value worked out at 8.98 ± 0.5.
